# Measurements: PubChem BioAssay AID624296 (National Center for Advancing Translational Sciences (NCATS), 2012)
# Screen size: about 350,000 compounds; about 9,900 (2.8%) were called active. Inconclusive means that the source gave no clear call. Such entries were picked first, then a sample of the others. The call rests on the fitted dose curve; in most records, active means well fitted activation curve with a large enough effect; inconclusive means small, poorly fitted or top-dose-only effect; inactive means no such curve, though single readings can be large or run the other way. No potency is given beside an inconclusive call; the fits are too rough.
# Assay: A quantitative high throughput screen for small molecules that induce DNA re-replication in MCF 10a normal breast cells. Further: nearly all actives have a fitted effect of over 50% in size.
# Conditions: MCF 10A DNA re-replication, Hoechst nuclear intensity, 48 h; series mostly up to 46.1 µM
# Potency means the concentration at half of the fitted maximal effect; tags describe the fitted curve by direction and shape.
row,SMILES,Potency
1,COc1cc(C(=O)NCCCN2CCCC2=O)cc(Br)c1OCc1ccccc1,"inconclusive [activator, partial curve, poor fit]"
2,CCC(C)c1ccc(NC(=S)Nc2ccc(OC)cc2C)cc1 (stereo not given),"inconclusive [activator, single point]"
3,CCOC(=O)C[n+]1c(C)sc2ccc(OC)cc21,"inconclusive [activator, partial curve]"
4,NNC(=O)c1cnn(-c2ccccc2)c1-n1cccc1,"inconclusive [activator, single point]"
5,CC(C)=CCC/C(C)=C/CNC(=O)CC1C[C@H](C(=O)N(C(C)C)C(C)C)[C@@]2(C)c3[nH]c4ccccc4c3CCN2C1=O (stereo not given in full),inactive
6,Cc1ccc(S(=O)(=O)NCc2cn3c(C)csc3n2)cc1,inactive
7,O=C(NCCc1ccc(Cl)cc1)c1n[nH]c2ccccc12,"inconclusive [activator, partial curve, poor fit]"
8,CCN(CC)c1ccc(/C=C2\SC(=O)N(C(C)C)C2=O)o1,active: 3.66 µM
9,CCN(CC)CCn1c2ccccc2c2cnc(N=CN(C)C)c(C#N)c21,active: 20.6 µM
10,Cc1cccc(OCc2nc(C#N)c(NCc3ccc4c(c3)OCO4)o2)c1,"inconclusive [activator, partial curve]"
11,Fc1ccccc1Cn1cc(C(=S)N2CCOCC2)c2ccccc21,inactive
12,FC(F)Sc1ccc(N=C2NN=C(c3ccc4c(c3)OCCO4)CS2)cc1,"inconclusive [activator, partial curve, poor fit]"
13,CC[n+]1c(/C=C/C=C/N(C(C)=O)c2ccccc2)sc2cc(OC)ccc21,inactive
14,CCC(C)Sc1ccc([C@H]2N[C@@](C)(C(=O)OC)[C@H]3C(=O)N(CC)C(=O)[C@@H]23)cc1 (stereo not given in full),inactive
15,Cc1cc(C)c2c(N)c(C(=O)Nc3cccc(C)c3C)sc2n1,active: 16.4 µM
16,Cc1nnc2ccc(-c3cccc(NS(=O)(=O)c4ccccc4Cl)c3)nn12,"inconclusive [activator, partial curve]"
17,CCn1cc(CCCC(=O)NCc2cccc(OC)c2)c2ccccc21,inactive
18,O=C(NCCCN1CCOCC1)c1ccc2c(c1)N(Cc1c(F)cccc1Cl)C(=O)CS2,"inconclusive [activator, partial curve, poor fit]"
19,O=C(Nc1ccccn1)c1cc(-c2cccnc2)nc2ccc(Br)cc12,"inconclusive [activator, single point]"
20,COc1ccc(S(=O)(=O)N2CCCC(C(=O)NCc3cccnc3)C2)cc1OC (stereo not given),inactive
